Fold increase and viability data for 27 compounds are collected here from PubChem BioAssay AID1956 (SRMLSC, 2009).

Some of the results follow. These are further read-outs of the screen, such as a control signal, another cell line or another target. No call is given for them.

This assay in a line: compounds boosting herpes simplex virus growth – fold increase, host cell viability (AID 1956). Note: tested in PC3 cells. The settings on record: HSV replication augmentation in cells; fold increase: measured here: primary screen fold increase 10 uM, at 10 µM, stronger effect = higher value; viability: measured here: host cell viability series, at 25 µM, stronger effect = lower value.
In turn, `COc1ccccc1NC(=O)CCC(=O)OCc1ccc([N+](=O)[O-])cc1` showed a fold increase of 1.32.
Take `CCc1ccc(C2N(c3ccc(OC)cc3)C(=O)C3CCCN32)cc1` (configuration not stated): the fold increase stood at 1.37 and the viability came out at 91.4%.
For `COc1ccc2o/c(=N/NC(=O)c3cccs3)c(C(N)=O)cc2c1`, in that order: 1.77 and 92.2%.
For `O=C(c1cccnc1)N1CCN(C/C=C/c2ccccc2)CC1`, in that order: 1.57 and 92.5%.
Turning to `CCN(CC)c1ccc(/C=C(/C#N)C(=O)NC(C)C)o1`, the fold increase was 1.67.
Consider `COC(=O)c1cnc(NNS(=O)(=O)c2ccc(Cl)cc2)nc1C(F)(F)F`, for which the fold increase was 1.62 and the viability worked out at 99.4%.
Take `Cc1ccccc1C(=O)Nc1ccc2c(C#N)c3nc4ccccc4nc3n2c1`: the fold increase was determined as 2.42.
`COC(=O)C1C2C=CC3(CN(c4cccc(Cl)c4)C(=O)C13)O2` (configuration not stated): the fold increase turned out to be 1.37 and the viability amounted to 103%.
Turning to `COC(=O)C1(C)NC(=O)c2ccccc2N1` (configuration not stated), the fold increase is 1.34 and the viability came to 91.8%.
For `CC(=O)Oc1ccc(OC(C)=O)c2c1CC(C)=C(C)C2`, in that order: 1.68 and 95.6%.
Compound `Cc1cc2nc3c(=O)n(C4CCCCC4)c(=O)[nH]c3nc2cc1N` displayed a fold increase of 5.6.
The same measure, in the same setting: to `CC1=CC(=C(C#N)c2nc3ccccc3s2)C=C(C)N1c1ccc(F)cc1F` belongs 1.45.
Take `CC(=O)Nc1ccc(NS(=O)(=O)c2cccc3ccccc23)cc1`: the fold increase turned out to be 1.34 and the viability is 96.7%.
`O=C(Cc1cccc2ccccc12)Nc1ccc(-c2cc3ccccc3oc2=O)cc1`: the fold increase was 1.26.
Take `CC(C)Oc1ccc(C2C(C#N)=C(N)Oc3c2oc(CO)cc3=O)cc1` (configuration not stated): the fold increase worked out at 1.5 and the viability amounted to 92.1%.
In the case of `O=C(NC1CCN(C(=O)c2cccs2)CC1)c1ccccc1`, the fold increase was 1.49 and the viability amounted to 98.2%.
Consider `C/C(=N\NC(=O)CNc1cccc2ccccc12)c1ccccc1`, for which the fold increase amounted to 1.36 and the viability stood at 96.6%.
For `CCC(CCC(=O)Nc1ccc(S(N)(=O)=O)cc1)C(=O)O` (configuration not stated), in that order: 1.37 and 99.7%.
`Cc1ccccc1NC1=C(C(=O)c2ccccc2)N(C)S(=O)(=O)c2ccccc21` returned a fold increase of 1.12.
Turning to `O=C(Nc1ccccc1F)C1CCCN(S(=O)(=O)c2cccc3cccnc23)C1` (configuration not stated), the fold increase turned out to be 1.44 and the viability stood at 91.6%.
For `Cc1ccc(C(=O)Nc2ccccc2C(=O)N2CCCCCC2)cc1`, in that order: 1.36 and 98.9%.
For `Cn1c(/C(C#N)=C/c2ccc(-c3ccc(S(N)(=O)=O)cc3)o2)nc2ccccc21`, in that order: 4.12 and 79%.
For `CN(C)c1ccc(/C=C(/C(=O)c2ccc(Cl)cc2Cl)n2cncn2)cc1`, the fold increase came out at 3.58 and the viability turned out to be 72%.
As to `CN(C)c1ccc(C(CC(=O)c2ccccc2)C2CCCCC2=O)cc1` (configuration not stated), the fold increase was 1.52 and the viability stood at 92%.
For `CCOC(=O)C1=C(Cc2ccc(F)cc2)C(=O)c2ccccc2C1=O`, the fold increase is 5.31 and the viability was determined as 77.6%.
For `Cc1[nH]c2ccccc2c1C(=O)C(=O)N1CC=C(c2ccccc2)CC1`, in that order: 6.35 and 79.2%.
For `COC(=O)c1scc(C)c1N/N=C(\C)c1cc(F)c(Cl)cc1F`, in that order: 1.41 and 92.9%.

Usually viability stands for a read-out of living cells in per cent, often relative to untreated cells.
